Drawing on PubChem BioAssay AID485344 (National Center for Advancing Translational Sciences (NCATS), 2010), this text covers inhibition for 94 molecules.

The whole screen tested about 340,000 compounds, of which about 6,900 (2%) were called active. Cut-off read from the data, not from the text of the source: active = inhibition above about 30%; inactive = below that, where a call was filed. This is a selection; strong and weak results do not stand in their true shares. Where no call is shown, the source filed none.

This experiment concerns the target D(2) dopamine receptor (Homo sapiens) (UniProt P14416). Description: HTS Assay for Allosteric Antagonists of the Human D2 Dopamine Receptor: Primary Screen for Antagonists. Note: 0% is about no effect. Conditions: HEK293 TREx D2 cells, calcium flux, dopamine EC80; at 10 µM; stronger effect = higher value. The method, boiled down: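 In this primary screen, negative modulation is detected by tracking calcium flux after an EC80 dopamine challenge in inducible HEK293 T-REx D2 cells preexposed to test compound for 180 s.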
Chain of UniProt P14416 (P14416 whole entry, looked up): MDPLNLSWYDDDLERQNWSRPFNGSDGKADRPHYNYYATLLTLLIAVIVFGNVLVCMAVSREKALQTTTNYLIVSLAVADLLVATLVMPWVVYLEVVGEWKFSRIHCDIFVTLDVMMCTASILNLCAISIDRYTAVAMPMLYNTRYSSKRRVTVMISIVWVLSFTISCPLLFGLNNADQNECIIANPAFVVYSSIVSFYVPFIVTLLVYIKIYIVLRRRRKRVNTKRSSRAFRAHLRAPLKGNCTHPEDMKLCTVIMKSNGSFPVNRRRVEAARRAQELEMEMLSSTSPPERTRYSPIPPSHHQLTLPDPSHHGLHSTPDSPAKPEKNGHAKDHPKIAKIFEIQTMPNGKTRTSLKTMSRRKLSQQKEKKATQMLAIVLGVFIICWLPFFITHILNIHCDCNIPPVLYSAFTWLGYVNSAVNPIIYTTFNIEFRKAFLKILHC
`CCOC(=O)c1nnc2c(-c3ccc(Cl)cc3)c(C)nn2c1C`: the inhibition is -14.2%.

Consider `Cc1ccc2c(c1)-c1c(cnn1CC(=O)Nc1ccccc1C#N)CO2`, for which the inhibition worked out at 25.8%.

Take `Cc1ccc(OC(=O)CSc2nnc(CNC(=O)c3ccccc3)o2)cc1`: the inhibition is -21.1%.

In the case of `CC(=O)N1CCCc2cc(S(=O)(=O)N3CCCC(C(=O)N4CCN(c5cc(C)ccc5C)CC4)C3)ccc21` (centres undefined), the inhibition worked out at 6.49%.

On to `Cc1ccc(C(=O)COC(=O)CCC(=O)Nc2ccc(Oc3cc(C)ccc3C(C)C)cc2)cc1`, for which the inhibition is -3.99%.

In the case of `CCc1ccc(C2=NN(CCC(=O)NCCc3ccc(Cl)cc3)C(=O)CC2)cc1`, the inhibition was found to be 18.8%.

Regarding `Cc1cc(Br)ccc1NC(=O)C1CCN(S(=O)(=O)c2ccc(Br)s2)CC1`, the inhibition is 4.88%.

`CCOC(=O)c1ccc(N2C(=O)c3n[nH]c(-c4cccs4)c3C2c2ccc(Cl)cc2Cl)cc1` (centres undefined): the inhibition was found to be 21.4%.

For `COc1ccc(/C=C(/C#N)c2nc(-c3ccc(Br)cc3)cs2)cc1`, the inhibition is 5.89%.

Turning to `CCOc1ccc(NC(=O)CCS(=O)(=O)c2ccc(Br)cc2)cc1`, the inhibition was -16.8%.

`COc1ccc(NC(=O)c2c(C)oc3ccc(O)c(CN4CCN(Cc5ccccc5)CC4)c23)cc1`: the inhibition turned out to be 9.54%.

In the case of `Cc1cccc(Cn2c(SCc3ccc(C(=O)NC4CCCCC4)cc3)nc3ccncc32)c1`, the inhibition was -14.9%.

For `CCc1ccc(NC(=O)C(=O)NNC(=O)c2ccc(OC)cc2)cc1`, the inhibition is active: 43%.

For `COc1cc(NC(=O)c2c(C)oc3ncnc(N4CCCCC4)c23)cc(OC)c1`, the inhibition came out at 1.62%.

Regarding `Cc1ccc2c(c1)c(=O)c1ccccc1n2CCCC(=O)Nc1c(F)cccc1F`, the inhibition is 3.58%.

`Cc1ccc(/C=C/c2onc(C)c2S(=O)(=O)N2CCC(C(=O)N3CCCCC3)CC2)cc1`: the inhibition was active: 34.1%.

Turning to `CN(Cc1ccccc1)C(=O)c1cn(C)c2ccc(S(=O)(=O)N(C)C3CCCCC3)cc2c1=O`, the inhibition is -2.46%.

For the molecule `COc1cc(NC(=O)c2ccc(NC(=O)N3CCSc4ncccc43)cc2)cc(OC)c1`, the inhibition was found to be 5.58%.

As for `COc1ccc(CCNC(=O)c2ccc(CNS(=O)(=O)c3ccccc3)cc2)cc1OC`, the inhibition is 7.96%.

`Cc1cccc(CCNC(=O)C2CCCN(S(=O)(=O)c3ccc4c(c3)oc(=O)n4C)C2)c1` (centres undefined): the inhibition was found to be 0.986%.

Consider `CC(C)(C)OC(=O)N1CCC(c2c(C(=O)N3CCN(C(=O)c4ccco4)CC3)cnn2-c2ccccc2)CC1`, for which the inhibition is -0.371%.

On to `CCOc1cccc2sc(N(CCN(CC)CC)C(=O)c3ccco3)nc12`, for which the inhibition came to 26%.

Turning to `CCC1CN(C(=O)Nc2ccc(C(=O)O)cc2)c2cc(Cl)ccc2O1` (centres undefined), the inhibition was -0.302%.

As to `Cc1ccc2nc(Cl)c3cc(C(=O)NC4CCCCCC4)sc3c2c1`, the inhibition was -13.9%.

As to `O=C(CSc1cn(CC(=O)N2CCCC2)c2ccccc12)Nc1cc(C(F)(F)F)ccc1Cl`, the inhibition was -19.8%.

As for `O=C(c1ccc(CS(=O)c2ccccc2Cl)o1)N1CCN(c2cccc(Cl)c2)CC1` (centres undefined), the inhibition is -0.658%.

In the case of `COc1ccc(C(CNC(=O)c2cccc(N(C)C)c2)N2CCCC2)cc1` (centres undefined), the inhibition is active: 46.6%.

With `CC(CNC(=O)CCCn1c(=O)c2cccn2c2cccnc21)c1ccccc1` (centres undefined), the inhibition came out at 4.35%.

With `CC1(C)CC(=O)CC2(C1)NCC(c1ccccc1)c1c2[nH]c2ccccc12` (centres undefined), the inhibition was active: 31.4%.

As for `COc1cccc(CNC(=O)c2ccc(NC(=O)N3CC(C)Sc4ccccc43)cc2)c1` (centres undefined), the inhibition was 14.9%.

As to `Cc1ccccc1Nc1c(-c2ccncc2)nc2ccc(Cl)cn12`, the inhibition was 3.91%.

As to `CCc1nn2c(=O)c(S(=O)(=O)Nc3cccc(F)c3)c(C)nc2s1`, the inhibition came out at 17.5%.

As for `CCC(Sc1nc2nccnc2c(=O)n1Cc1ccc(C)cc1)C(=O)NC1CCCCC1` (centres undefined), the inhibition is -5.17%.

Regarding `CCOc1ccc(S(=O)(=O)Nc2ccc(-c3ccc(OC)nn3)cc2)cc1`, the inhibition was -13.7%.

For the molecule `Cc1cccc(-n2c(SCC(=O)c3ccccc3)nnc2-c2ccc(Br)cc2)c1`, the inhibition came out at 1.89%.

For the molecule `Cc1ccc(Cl)cc1NS(=O)(=O)c1cc2c3c(c1)CC(=O)N3CCC2`, the inhibition is 10.8%.

Consider `Cc1c2cnn(-c3ccccc3)c(=O)c2c(C)n1CC(=O)NCc1ccccc1`, for which the inhibition was 14.8%.

For the molecule `COc1cc2c(c(OC)c1)C(c1cc(OC)c(OC)c(OC)c1)CC(=O)N2` (centres undefined), the inhibition amounted to 5.78%.

`CCCNC(=O)N1CCN(S(=O)(=O)c2ccc3c(ccn3C)c2)CC1`: the inhibition is -21.8%.

For the molecule `C=CC(COCc1ccccc1)N(C(=O)OC(C)(C)C)S(=O)(=O)c1ccccc1Br` (centres undefined), the inhibition was active: 68%.

`Cc1ccc(CNC(=O)Cn2c(=O)n(-c3cccc(Cl)c3)c(=O)c3sc4ccccc4c32)cc1`: the inhibition came out at 0.774%.

Consider `COc1ccccc1N1CCN(C(=O)c2cc3ccc4ccc(C)[nH]c4c3n2)CC1`, for which the inhibition was 18.9%.

Take `CCOC(=O)C1CCCN(S(=O)(=O)c2csc(C(N)=O)c2)C1` (centres undefined): the inhibition was determined as 28.2%.

With `COc1c2ccc(C(=O)NCc3cc(C(F)(F)F)cc(C(F)(F)F)c3)cc2nn1C`, the inhibition was active: 40.8%.

Consider `Cc1cccc(C(=O)NCC(=O)OCc2cc(=O)n3nc(C4CC4)sc3n2)c1`, for which the inhibition is 19.5%.

With `Cc1cc(C)cc(NC(=O)CCc2c(C)nc3c4cccnc4nn3c2C)c1`, the inhibition is -1.95%.

In the case of `CCOC(=O)Cn1c(=O)n(C2CCCCC2)c2nc(-c3cccc(OC)c3)nc(C(N)=O)c21`, the inhibition was -25.6%.

Take `COc1cccc(CNC(=O)CCc2c(C)c3cc4c(C)coc4c(C)c3oc2=O)c1`: the inhibition came to 17.8%.

In the case of `COc1ccc(OCC(=O)N2CCN(C(=O)c3cccc(OC)c3)CC2)cc1`, the inhibition was -7.65%.

On to `CCc1ccccc1NC(=O)CCS(=O)(=O)c1cccc2nonc12`, for which the inhibition is -1.3%.

Turning to `COc1ccccc1NC(=O)c1sc2nc(C)c(C(=O)Nc3ccc(C)cc3C)c(-c3ccc(C)o3)c2c1N`, the inhibition was found to be 4.98%.

Consider `Cc1ccc(-n2ncc3c(N4CCN(C)CC4)ncnc32)cc1C`, for which the inhibition came to 24.7%.

For the molecule `COc1ccccc1C(=O)Nc1ccnn1C1CCN(Cc2cc(C)c(C)cc2C)CC1`, the inhibition was active: 52.8%.

Regarding `Cc1ccc(C)c(Cn2c(=O)cc(C)c3c(C)nn(C)c32)c1`, the inhibition was -1.71%.

`CCn1c(C)c(C)c2cc(C(=O)NCc3cccc(C)c3)ccc21`: the inhibition is 2.43%.

In the case of `O=C(c1ccccc1)N(Cc1ccco1)Cc1cccs1`, the inhibition turned out to be 4.26%.

As to `COc1ccc(NC(=O)/C=C\C(=O)N(c2ccc(C(C)C)cc2)C(C(=O)NCc2ccco2)c2ccc(F)cc2)cc1` (centres undefined), the inhibition is -3.01%.

Turning to `Cc1cccc(C(=O)Nc2ccc(C(=O)OCc3cc(=O)n4nc(CC(C)C)sc4n3)cc2)c1`, the inhibition was 4.26%.

Turning to `CCN(C(=O)C1CCN(c2ncnc3c2nc2n3CCCCC2)CC1)c1cccc(Cl)c1`, the inhibition is -14.4%.

On to `Cc1cccc(N2CCN(c3nc4ccc(C)cc4n4cnnc34)CC2C)c1` (centres undefined), for which the inhibition is -12.5%.

In the case of `COc1ccc(-n2ccnc(NCc3ccc(C)cc3)c2=O)cc1OC`, the inhibition is -2.33%.

`O=C(NCC(c1ccc2c(c1)OCO2)N1CCOCC1)c1c(F)cccc1F` (centres undefined): the inhibition came out at 15.4%.

In the case of `CCOc1ccccc1N(CC)C(=O)c1noc2c1COc1ccc(C)cc1-2`, the inhibition turned out to be 11.1%.

On to `O=C(c1ccc(F)cc1)n1nc(-c2ccccc2)nc1NCc1ccco1`, for which the inhibition is -5.87%.

Take `O=C(NC1CCCCC1)c1ccc2c(c1)N(Cc1ccc(Cl)cc1)C(=O)c1ccccc1S2=O` (centres undefined): the inhibition is -14.8%.

Turning to `CCn1cc(C(=O)NCCc2ccc(Cl)cc2)c(=O)c2cc(S(=O)(=O)N3CCC(C)CC3)ccc21`, the inhibition was -19.4%.

For `Cc1cccc(NC(=O)CCNS(=O)(=O)c2cccc3nsnc23)c1C`, the inhibition is 10%.

In the case of `COc1ccc(N(CC(=O)N2CCN(c3ccccc3F)CC2)S(=O)(=O)c2c(C)n[nH]c2C)cc1`, the inhibition was 0.908%.

For `CCN1CCN(CCCNC(=O)c2ccc3nc(Cc4ccccc4)oc3c2)CC1`, the inhibition is 18.8%.

For `COc1ccc(N2CCN(C(=O)c3cc(S(=O)(=O)N4CCC(C)CC4)cn3C)CC2)cc1`, the inhibition was 25.3%.

`CC(=O)N1CCc2cc(CNS(=O)(=O)c3ccc(Cl)s3)ccc21`: the inhibition was -21.4%.

As to `COc1ccc(-n2c(=O)c3c4c(sc3n3c(SCCC(C)C)nnc23)COC(C(C)C)C4)cc1` (centres undefined), the inhibition was found to be 8.38%.

`CN1C(=O)C2(SCC(=O)N2c2ccc(F)cc2)c2ccccc21` (centres undefined): the inhibition is -3.59%.

With `COc1cc(OC)cc(C(=O)Nc2ccc3oc(-c4cccc5c(Br)cccc45)nc3c2)c1`, the inhibition turned out to be 8.61%.

For the molecule `CCOc1ccc(OCC)c(NS(=O)(=O)c2cc(-c3onc(C)c3C)ccc2OC)c1`, the inhibition is -1.98%.

As for `Cc1ccc(NC(=O)CN2C(=O)C3(SCC(=O)N3c3ccc(F)c(F)c3)c3ccccc32)c(C)c1` (centres undefined), the inhibition was -9.71%.

`CCOCCCNC(=O)C(c1ccc(Cl)cc1)N(Cc1cccs1)C(=O)c1ccc(NC(C)=O)cc1` (centres undefined): the inhibition was -0.0532%.

With `CCC(=O)N1CCc2cc(Br)cc(S(=O)(=O)CCC(=O)N(CC)Cc3ccccc3)c21`, the inhibition is -7.99%.

As to `CN(C)c1ccc(C(CNC(=O)c2c(F)cccc2Cl)N2CCOCC2)cc1` (centres undefined), the inhibition is 4.61%.

On to `CC(C)(Oc1ccc(Cl)cc1)C(=O)Nc1nc2ccc(S(C)(=O)=O)cc2s1`, for which the inhibition was -13.3%.

As to `Cc1ccc(NC(=O)c2c(C)oc3ccc(O)c(CN4CCCCC4)c23)c(C)c1`, the inhibition was -11.3%.

Turning to `Cc1ccc(-c2nnc(Nc3ccc(S(N)(=O)=O)cc3)c3ccccc23)cc1S(=O)(=O)N1CCCCC1`, the inhibition was -0.951%.

As to `COc1ccc(CCC(=O)NCCc2csc(-c3ccc(Cl)cc3)n2)cc1`, the inhibition came out at 19.8%.

As for `COCCNC(=O)CSc1nc(-c2ccccc2C)nc2c1c(=O)n(C)c(=O)n2C`, the inhibition stood at 9.26%.

Consider `NS(=O)(=O)c1ccc2nc(NC(=O)COc3ccccc3)sc2c1`, for which the inhibition worked out at 4.71%.

Consider `Cc1ccc(NC(=O)c2nc(S(C)(=O)=O)ncc2N(Cc2ccco2)Cc2ccco2)cc1C`, for which the inhibition is -1.01%.

Regarding `CN(Cc1ccco1)S(=O)(=O)c1nnc(NC(=O)c2cccc(Cl)c2)s1`, the inhibition was 0.801%.

With `CCCN(CCC)C(=O)c1cc2c(=O)n3cccc(C)c3nc2n1C`, the inhibition is -0.553%.

Turning to `Cc1ccc2cccc(NC(=O)c3ccc(-c4cccc(Cl)c4)o3)c2n1`, the inhibition is 14.9%.

Regarding `CC(C)C(NS(=O)(=O)c1ccc2c(c1)oc(=O)n2C)C(=O)NCCc1ccc(Cl)cc1` (centres undefined), the inhibition was -1.29%.

Regarding `Cc1ccc(NC(=O)Cn2c(=O)oc3cc(S(=O)(=O)N4CCCCCC4)ccc32)cc1Cl`, the inhibition was -16.9%.

With `CCCCOc1ccc(C(=O)N(Cc2nc(-c3ccc(Cl)cc3)no2)C(C)C)cc1`, the inhibition is -3.44%.

In the case of `Cc1ccc(Cn2c(C)c(CNCc3ccc(OC(C)C)cc3)c(C(=O)O)c2C)cc1`, the inhibition was -3.67%.

On to `COc1ccc(CC(=O)NCCc2sc(-c3cccc(F)c3)nc2C)cc1`, for which the inhibition was -6.88%.

What is called inhibition is the relative decrease from the control value, in per cent.
